Over roughly 110,000 compounds, “z-score” has its median near -0.1; the highest 2% begin near 2. This is one part of the list. The source made the active and inactive calls.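 The calls were made as follows: active = z-score in the third read window above 3 or below -3; inactive = the rest.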
Molecular target: Metabotropic glutamate receptor 8 (Rattus norvegicus) (UniProt P70579)
Experiment: rat mGluR8 modulators via GIRK flux, primary screen, cell-based, thallium flux, HTS (AID 488969)
Conditions: HEK293 rat mGluR8, GIRK (G protein-gated inwardly rectifying potassium channel) thallium flux, FluoZin2; at 10 µM; stronger effect = higher value; submaximal glutamate (EC20) added with thallium

UniProt P70579, sequence (P70579 whole entry, looked up): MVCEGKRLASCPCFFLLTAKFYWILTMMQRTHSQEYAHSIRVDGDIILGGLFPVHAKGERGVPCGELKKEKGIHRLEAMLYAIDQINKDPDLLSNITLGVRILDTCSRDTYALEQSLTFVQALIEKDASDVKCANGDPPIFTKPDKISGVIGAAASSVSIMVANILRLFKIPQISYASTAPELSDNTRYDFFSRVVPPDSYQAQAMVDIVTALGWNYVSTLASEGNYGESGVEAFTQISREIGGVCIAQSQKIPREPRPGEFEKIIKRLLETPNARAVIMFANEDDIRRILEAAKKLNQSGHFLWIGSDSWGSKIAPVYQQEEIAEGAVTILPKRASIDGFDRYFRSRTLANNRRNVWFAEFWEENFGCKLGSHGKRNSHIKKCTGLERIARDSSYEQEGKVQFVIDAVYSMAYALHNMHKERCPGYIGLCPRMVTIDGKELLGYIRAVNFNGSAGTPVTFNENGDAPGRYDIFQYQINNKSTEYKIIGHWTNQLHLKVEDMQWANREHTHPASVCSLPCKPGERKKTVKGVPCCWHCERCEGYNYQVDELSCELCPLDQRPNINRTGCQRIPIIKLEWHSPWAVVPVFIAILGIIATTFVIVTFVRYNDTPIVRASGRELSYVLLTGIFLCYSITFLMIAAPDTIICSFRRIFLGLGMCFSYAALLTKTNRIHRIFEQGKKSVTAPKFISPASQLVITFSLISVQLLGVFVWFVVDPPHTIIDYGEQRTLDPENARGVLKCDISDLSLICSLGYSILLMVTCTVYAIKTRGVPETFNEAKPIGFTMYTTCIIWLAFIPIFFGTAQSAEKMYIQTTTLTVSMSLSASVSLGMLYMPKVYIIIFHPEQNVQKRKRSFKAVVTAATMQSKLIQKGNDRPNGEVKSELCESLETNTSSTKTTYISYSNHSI

Compound	z-score
CCCCCc1ccc(CC(=O)Nn2c(C)nc3ccccc3c2=O)cc1	0.84
CC1=C(C#N)C(=O)OC(C)(C)C1	-0.482
COC(=O)CN1C(=S)N(c2ccccc2)C(=O)C1CC(=O)Nc1ccc(Cl)cc1 (stereo not given)	-0.168
CCn1c(SCC(=O)Nc2cc(C)on2)nc2c1c(=O)n(C)c(=O)n2C	-0.0494
CC(C)Nc1nnc(SCC(=O)c2c(N)n(Cc3ccccc3)c(=O)n(C)c2=O)s1	-0.427
O=C(Nc1sc2c(c1C(=O)O)CCC2)c1ccccc1	-0.0696
O=C(c1ccco1)N(CCC(c1ccccc1)c1ccco1)Cc1ccco1 (stereo not given)	-0.692
c1ccc(N2CCN(C3CCSC3)CC2)cc1 (stereo not given)	-0.119
CCc1cc2c(=O)nc3n(c2s1)Cc1ccccc1/C3=C(/O)c1ccc(F)cc1	0.832
CC(NC(=O)Nc1ccccc1O)(C(F)(F)F)C(F)(F)F	0.0646
O=C(Cn1cncn1)N/N=C/c1c2ccccc2cc2ccccc12	-0.0193
Cc1c(NC(=S)N/N=C/c2cccc(O)c2)c(=O)n(-c2ccccc2)n1C	-0.201
Cc1cccc(NC(=O)C2CC(=O)OC23CCCC3)c1 (stereo not given)	-0.174
O=C(NC1CCCCC1)C(Cc1ccccc1)NS(=O)(=O)c1cccs1 (stereo not given)	-0.336
COc1ccc(-c2csc(NC(=O)CCCc3cccs3)n2)cc1	-0.0277
O=C(NCCc1ccccc1)C1CC(c2ccccc2O)=NO1 (stereo not given)	-0.373
COc1ccc(NC(=O)c2ccc3c(c2)C(=O)N(Cc2cccnc2)C3=O)cc1	0.241
CC(=O)N1CCc2cc(Br)cc(S(=O)(=O)NCc3ccccn3)c21	0.145
COCCCNc1nc2c(c(=O)[nH]c(=O)n2C)n1CC(O)COc1ccccc1 (stereo not given)	-0.217
CCOC(=O)c1sc2nc(SC)nc(-c3ccc(Cl)cc3)c2c1N	-0.108
Cc1cccc(N2CCN(C(=O)c3ccc4nc[nH]c4c3)CC2)c1C	-0.25
COc1ccc(NC(=O)c2c(Cl)n(C)c3ccccc23)cc1	-0.242
O=c1[nH]c2cc3c(cc2cc1CN(CCc1ccccc1)Cc1nnnn1CC1CCCO1)OCO3 (stereo not given)	-0.544
Cc1c(N=C2SCC(=O)N2/N=C/c2ccccc2Cl)c(=O)n(-c2ccccc2)n1C	0.339

Compound	z-score
Cc1ccc(NS(=O)(=O)c2cc(C(=O)N3CCOCC3)ccc2C)cc1	0.142
CCN1CCN(c2c(Cl)cccc2NC(=O)c2ccc3c(c2)OCCO3)CC1	-0.091
COc1cc(OC)cc(C(=O)NNC(=O)Cc2ccc(OC)c(S(=O)(=O)N3CCOCC3)c2)c1	-0.00238
CCNC(=O)CN1c2cccc3cccc(c23)S1(=O)=O	0.487
CC(C)(C)C1CCc2c(sc(NC(=O)C3CC=CCC3C(=O)O)c2C#N)C1 (stereo not given)	-0.0721
CC(C)C(=O)N1CCC(CN=CC2=C(O)CC(C)(C)CC2=O)CC1	-0.187
CCOC(=O)c1sc(Nc2ccccc2)nc1C	-0.0511
COC(=O)c1sccc1NC(=O)CN(C)NS(=O)(=O)c1ccc(F)cc1	-0.846
O/N=C\c1cccn1-c1ccc(Br)cc1	-0.477
COc1cc(NC(=O)c2cccc([N+](=O)[O-])c2C)ccc1NC(=O)c1ccco1	-0.0609
Cc1cccc(Nc2nc(N)nc(CN3CCN(c4ccccc4F)CC3)n2)c1	0.309
OCCN1CCN(C(=S)c2ccc(Cl)cc2)CC1	-0.061
O=C(CCC(=O)OCC(=O)c1cccc([N+](=O)[O-])c1)Nc1ccccc1Cl	0.0825
CS(=O)(=O)N(Cc1ccc(C(=O)Nc2ccccc2Sc2ccccc2)cc1)c1ccccc1	-0.197
Cc1cc(/C([O-])=C(/C(=S)Nc2ccccc2)[n+]2ccccc2)c(C)n1-c1ccccc1	-0.3
c1ccc(-c2nnc(SCc3nc4ccccc4[nH]3)n2Cc2ccco2)cc1	-0.166
CCCS(=O)(=O)N1CCN(C(=O)COc2ccccc2)CC1	-0.226
COc1ccc2c(c1OC)C(=O)N(c1ccc(C)c(C)c1)C2=O	0.105
CNc1ccc(C(O)(C(F)(F)F)C(F)(F)F)cc1C(O)(C(F)(F)F)C(F)(F)F	-0.247
O=C(c1cccc(-c2ccc(O)cc2)c1)N1CCOCC1	-0.37
CCCCNS(=O)(=O)c1ccc(NC(=O)C(Sc2ccccc2)c2ccccc2)cc1 (stereo not given)	0.179
C=C(C)Cn1c(CCNC(=O)C(C)C)nc2ccccc21	-0.19
N#Cc1ccc(C(=O)Nc2ccn(-c3ccccc3)n2)cc1	-0.322
CC12CCC(C(=O)Nc3ncc([N+](=O)[O-])s3)(OC1=O)C2(C)C (stereo not given)	1.12

Compound	z-score
Nc1nc2c(c3c1c(=O)oc1ccccc13)CCCCC2	-1.02
CCOC(=O)Cc1csc(NC(NC(=O)OCC)(C(F)(F)F)C(F)(F)F)n1	-0.104
Cc1ccc(C(=O)OCC(=O)Nc2ccccc2Sc2ccccc2)cc1C	-0.191
CN1CCN(C(=O)Nc2cccc3ccccc23)CC1	active: 3.3
CCn1c(CSc2nnc(C)n2-c2ccccc2)nc2cc(S(=O)(=O)N(C)C)ccc21	-0.251
CCN(CCO)c1ccc(-n2c(N)c(C(=O)OC)c3nc4ccccc4nc32)cc1	-0.823
O=C(c1cc2c(s1)-c1ccccc1OC2)N1CCCC1	-0.73
CO/N=C/c1ccc(Oc2ccc(C)cc2)nc1	-0.345
O=C(c1cccc(C(F)(F)F)c1)N1CCC(O)(CS(=O)(=O)Cc2ccccc2)CC1	0.123
CCCCOc1ccc(C(=O)N2CCCCCC2)cc1	0.0779
CC(=O)Nc1ccc(NC(=O)Cn2cnc3c(cnn3C(C)(C)C)c2=O)cc1	-0.329
CC1(c2ccccc2)CC(C)(C)N(C(=O)CSc2nnc(N)s2)c2ccccc21 (stereo not given)	-0.521
CCOC(=O)C(Sc1n[nH]c(N)n1)c1ccccc1 (stereo not given)	-0.282
Cc1ccc2[nH]cc(C(=O)CCl)c2c1	-0.0638
CCOc1ccc(NC(=O)C(C)O)c(NS(=O)(=O)c2ccc(CCNC(C)=O)cc2)c1 (stereo not given)	-0.0891
CS(=O)(=O)N1CCN(C2Cc3ccccc3C2)CC1	-0.16
CCC(=O)Nc1ccc(C(=O)CSc2nc3ccc(C)cc3[nH]2)cc1	-0.633
CSCC[C@H](NC(=O)CCn1nnc2ccccc2c1=O)C(=O)O	-0.473
O=C1OC(c2ccccc2)=N/C1=C\N1CCCCC1	0.0708
CCN(Cc1ccccc1)C(=O)CCCOc1ccccc1	0.0708
CCCCN(CC)CCNS(=O)(=O)c1ccc2c(c1)oc(=O)n2C	-0.341
CC1Cc2ccccc2N1Cc1cc(=O)n2ccsc2n1 (stereo not given)	0.202
